These results are taken from article doi:10.1101/2022.11.29.518370 (bioRxiv, 2022).

This data set concerns the molecule itself. The data set can be described thus: FRET or BRET. In general terms: BRET reads energy transfer from a luciferase to a nearby fluorophore.

B1: CTLA-4 with the last 23 amino acids removed, fused C-terminally to mEGFP or mCherry (dimer control) (receptor)
chain: not shown
For orientation: stoichiometry N means a count of units in the complex or per binding partner. As to B1, the “stoichiometry N” value is 2.
